According to PMC12136788:
The other results are listed elsewhere or left out.

T1: UNK ZnF1-6 (called full-length) (human, UniProt Q9C0B0 30-357)
T1 sequence: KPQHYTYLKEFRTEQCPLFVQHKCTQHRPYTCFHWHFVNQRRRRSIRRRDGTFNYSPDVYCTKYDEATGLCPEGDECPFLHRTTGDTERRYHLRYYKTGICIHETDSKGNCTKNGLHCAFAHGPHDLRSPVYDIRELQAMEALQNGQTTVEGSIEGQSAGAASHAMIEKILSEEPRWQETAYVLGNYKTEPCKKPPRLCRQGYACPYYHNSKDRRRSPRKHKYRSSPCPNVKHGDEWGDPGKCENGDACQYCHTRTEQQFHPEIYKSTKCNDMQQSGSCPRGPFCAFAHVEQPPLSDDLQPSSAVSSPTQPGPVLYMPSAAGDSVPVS

B1: chr7:44121865:44121972:-|CDS|ENSG00000106628|unk|FALSE|unique (ssRNA)
RNA: GGGAGUUCUACAGUCCGACGAUCGUGCCAGUGGCAACCUACACCAACUCCUCACAACCCUUCCGGCUAGGAGAGCGCAGCUUUAGCCGGCAGUAUGCCCACAUUUAUGCCACCCGCCUCAUCCAAAUGAGACCCUUCCUGGAGCAACAGAGGAUUGAGCAUCA
B2: chr2:160273923:160274028:-|3pUTR|ENSG00000153250|unk|total|mutant (ssRNA)
RNA: GGGAGUUCUACAGUCCGACGAUCGGGCUUUUAAAAGGCCGUCAAUAAAAGUUGCUGAAAUUUUGGCUUUUUUAAAUAUGCCGCCGGUGUUUUUAAUGAUUUUUCACAUAAUGUGUAAGGCCGUGAAAUGCAAGAAGGGAAAAACAACAGAGGAUUGAGCAUCA
B3: chr8:108778973:108784180:-|three_prime_utr|ENSG00000164841|control|control|control (ssRNA)
RNA: GGGAGUUCUACAGUCCGACGAUCAAGUUUAUUUCACAAACCAACAGCCAGUAAGUGUUUUUGUUCUCUAUGUGUCUUCUAUUUAGAAGAAAAGCCAUGUAAGAUGUAUAAGAAACCACAACCAGCCACACCUAUCCUUCUGAACAACAGAGGAUUGAGCAUCA
B4: chr9:14719723:14720089:-|three_prime_utr|ENSG00000147869|control|control|control (ssRNA)
RNA: GGGAGUUCUACAGUCCGACGAUCUUCAGUCUGAAAAUGUUAAGUGGGUACAUAACAUUUUCAGGGAAAGGUGACUUGAAACGUAGUUUUAAAUUAGAACGAUAGAGGAAAUGAUAUUAGUCUAGUUAUUGGUACACGUUUGAGCAACAGAGGAUUGAGCAUCA
B5: chr5:75360489:75360590:+|3pUTR|ENSG00000113161|msi1|total|mutant (ssRNA)
RNA: GGGAGUUCUACAGUCCGACGAUCGCUCUUUCAGAGAGGUCUCAGGUUCUUUCCAUGCAGACUCCUCAGAUCUGAACACAGUUCCGUGCUUUACAUGCUGUGCUCUUUGAAGAGAUUUCAACAAGAAUAUUGUAUGUUAAAGCACAACAGAGGAUUGAGCAUCA
B6: chr11:61866962:61867357:+|3pUTR|ENSG00000134824|msi1|total|mutant (ssRNA)
RNA: GGGAGUUCUACAGUCCGACGAUCAGAUUCAGGGGAAGGGCAGGCACCAACAACUCAGAAUGGGGGCUUUCGGGGAGGGCGCCCCGUCCCCCCAGCUCUAAGCAGCCAGGAGGGACCUGCAUCUAAGCAUCUGGGUUGCCAUGGCAACAGAGGAUUGAGCAUCA
B7: chr13:25097967:25098071:+|CDS|ENSG00000151846|unk|total|mutant (ssRNA)
RNA: GGGAGUUCUACAGUCCGACGAUCAGAACUUCUUUAUAUGCUCGAGUCUCCAGAGUCACUCCGUUCUAAGGUUGAUGAAGCUGCCGCUGUACUACAAGCCCACCAAGCUAAAGAGGCUACCCAGAAAGCAGUUAACAGUGCUACCAACAGAGGAUUGAGCAUCA
B8: chr7:139028693:139028797:-|CDS|ENSG00000146858|unk|total|mutant (ssRNA)
RNA: GGGAGUUCUACAGUCCGACGAUCUUUCAGAUAAUCUCCACCUACAAGCAUAUGAAGCUGCACAAGAUGCUUGAAAAUACAGGCCGGAAUAUCCAAGAAGGACAGAGAAGUAUCAGCGAUAUGGUUUUGCGAUGCUUCACUGUGCAACAGAGGAUUGAGCAUCA
B9: chr11:4094911:4095012:+|5pUTR|ENSG00000167325|unk|FALSE|unique (ssRNA)
RNA: GGGAGUUCUACAGUCCGACGAUCAGCAGCGCCUGGAACCUAACCCUUCCCACUCUGUCACCUUCUCGAUCCCGCCGGCGCUUUAGAGCCGCAGUCCAGUCUUGGAUCCUUCAGAGCCUCAGCCACUAGCUGCGAUGCAUGUGACAACAGAGGAUUGAGCAUCA
B10: chr12:909583:909684:+|3pUTR|ENSG00000060237|unk|FALSE|bound_elsewhere (ssRNA)
RNA: GGGAGUUCUACAGUCCGACGAUCUAGCUCUGUCCUUUACUUAUUGAGACACUUUAACUUUUUCCUUUGUAUUUCCAUUGUAUUAGAUAAAUAAAUGUGAAUGUAAAAUUGUAUAAAUUACUGUACUUGAAUACUUCUGUUUCCCAACAGAGGAUUGAGCAUCA
B11: chr17:34256851:34257067:+|3pUTR|ENSG00000108691|msi1|total|mutant (ssRNA)
RNA: GGGAGUUCUACAGUCCGACGAUCUUAAGUAAUGUUAAUUCUUAUUUAAGUUAUUGAUGUUUUAAGUUUAUCUUUCAUGGUACCCGUGUUUUUCCGAUACAGAGACUUGGGGAAAUUGCUUUUCCUCUUGAACCACAGUUCUACCAACAGAGGAUUGAGCAUCA
B12: chr12:133204733:133204837:+|3pUTR|ENSG00000090612|unk|FALSE|unique (ssRNA)
RNA: GGGAGUUCUACAGUCCGACGAUCCAAAAAGAUAGUAGACAAUACACAGGAAAACUGAAUUUAGUAACCACUCUGAAAAUUUUUAGCAGCAAGUCAUACCUUUUUUUAAAAAGUUCAUACAGGUGAGGAACCAUGUUAAACGUUCAACAGAGGAUUGAGCAUCA
B13: ENSG00000067955:stop:overlap|stop_codon|ENSG00000067955|stop_codon|NA|stop_codon (ssRNA)
RNA: GGGAGUUCUACAGUCCGACGAUCAAAUGGAGGUGAGAGUUUCACAGCUGCUGGCAGUAACUGGCAAGAAGACAACAAGACCCUAGUCCUGGUUCCAAUUUAGGUGGUGGUGAUGACCUCAAACUUCGUUAAUUAAUAGCACAGCAACAGAGGAUUGAGCAUCA
B14: chr5:149857952:149860894:-|three_prime_utr|ENSG00000132915|control|control|control (ssRNA)
RNA: GGGAGUUCUACAGUCCGACGAUCACCACCCUUUCCUGGGAAGAGAUGACUCAAGCCAGUGGAAGACCACACACCUUGAGAAGUAGAAGAGUCAUAGGAUUUGAAAGCUGUUAGAGAAUUUAGCUUCCAGGACUGUUCAAUCUUCAACAGAGGAUUGAGCAUCA

Target: T1, UNK ZnF1-6 (called full-length)
Assay: nsRBNS (natural sequence RNA bind-n-seq); RBNS binding buffer (assumed for nsRBNS): 25 mM Tris pH 7.5, 150 mM KCl, 3 mM MgCl2, 0.01% Triton X-100, 500 ug/ml BSA, 20 U/ml SUPERase-In, 4 C; UNK is unkempt and MSI1 is Musashi-1; names of the RNAs are library labels; protein concentration not given here; high values mean tight binding

Binder	binding signal
B1	0.85 enrichment R
B2	0.455 enrichment R
B3	0.507 enrichment R
B4	2.11 enrichment R
B5	0.227 enrichment R
B6	0.845 enrichment R
B7	0.61 enrichment R
B8	0.382 enrichment R
B9	0.88 enrichment R
B10	12.7 enrichment R
B11	1.13 enrichment R
B12	3.23 enrichment R
B13	0.965 enrichment R
B14	0.809 enrichment R
